Experimental data as given in PubChem BioAssay AID463173 (ICCB-Longwood Screening Facility, Harvard Medical School, 2010).
Hit rate of the full screen: of about 52,000 compounds, about 4,300 (8.3%) were called active. Cut-off read from the data, not from the text of the source: active = survival mostly below about 52% (no sharp cut-off); inactive = mostly above about 56%. The list shows a part of the results.

Test system: DeltatarO mutant
Assay: growth inhibition of S. aureus wild type versus tarO mutant, primary screen, teichoic acid synthesis inhibitors, RN4220, OD600 (AID 463173)
Details: OD600, 18 h, stronger effect = lower value, screened at 18.75 µg/mL (by protocol)

| Compound | survival |
| --- | --- |
| O=C(Cn1cc(S(=O)(=O)Cc2cccc(Cl)c2)c2ccccc21)Nc1ccccc1C(F)(F)F | inactive: 88% |
| CCOc1ccc(CCNC(=O)c2ccc3c(c2)N(Cc2ccc(F)cc2)CCS3)cc1 | inactive: 71% |
| O=C(NCC(c1cccs1)S(=O)(=O)c1cccs1)c1ccc(F)c(F)c1 (stereo not drawn) | inactive: 83% |
| COC(=O)c1sccc1S(=O)(=O)N(CC(=O)Nc1cc(C)ccc1C)c1ccc(C)c(C)c1 | inactive: 88% |
| C=CCc1c(C)nc(SC)nc1Nc1ccc(OC)cc1 | inactive: 72% |
| Cc1ccc(N2CC(NC(=O)c3ccc(S(=O)(=O)N(C)C)cc3)CC2=O)cc1C (stereo not drawn) | inactive: 92% |
| CCC(C)NC(=O)c1ccc2c(c1)sc1nc(-c3ccc(OC)cc3)cn12 (stereo not drawn) | inactive: 59% |
| CC(=O)N1CCc2c(sc3c2c(=O)n(Cc2ccccc2)c(=O)n3Cc2ccc(Cl)cc2)C1 | inactive: 109% |
| CN1CCN(C(CNC(=O)c2ccc(F)cc2)c2ccc3c(c2)OCO3)CC1 (stereo not drawn) | inactive: 78% |
| COc1ccc(OC)c(CCNC(=O)c2c(C)oc3ncn(CC(C)C)c(=O)c23)c1 | inactive: 75% |
| Cc1cc(C)c(Cn2c(=O)n(CCC(=O)NCCc3ccccc3)c(=O)c3ccccc32)c(C)c1 | inactive: 95% |
| CC(=O)Nc1ccc(C(=O)CSc2nc3ccccc3n2C)cc1 | inactive: 69% |
| CCCCCN1N=C(C)CC1=O | active: 39% |
| O=C(O)c1sc(Nc2ccccc2)nc1-c1ccccc1 | inactive: 172% |
| CCc1ccc2oc(-c3ccc(C)c(NC(=O)c4cc([N+](=O)[O-])ccc4N4CCOCC4)c3)nc2c1 | inactive: 54% |
| CC(C)Cc1cc(C(=O)NCc2ccc(Cl)cc2)no1 | inactive: 111% |
| CCOC(=O)C1=C(c2ccccc2)N=C2SCC(=O)N2C1c1ccc(O)c(OC)c1 (stereo not drawn) | inactive: 78% |
| COc1ccc(C(=O)NCCSc2c[nH]c3ccccc23)cc1OC | inactive: 76% |
| Clc1ccc(CSc2ccc(-c3cccs3)nn2)cc1 | inactive: 118% |
| COc1ccc(-n2c(=O)c3c4c(sc3n(Cc3ccc(F)cc3)c2=O)CN(C(C)=O)CC4)c(OC)c1 | inactive: 120% |

| Compound | survival |
| --- | --- |
| COC(=O)CN1C(=O)CSc2ccc(S(=O)(=O)Nc3ccc(F)c(Cl)c3)cc21 | inactive: 83% |
| CCC(CC)C(=O)N1c2ccccc2C(C)(c2ccccc2)CC1(C)C (stereo not drawn) | active: -5% |
| CSc1ncc(C(=O)Nc2cc(C)cc(C)c2)c(-c2ccccc2)n1 | inactive: 78% |
| CCOC(=O)C1=NNC2C(=O)N(c3cc(Cl)ccc3OC)C(=O)C12 (stereo not drawn) | inactive: 74% |
| Cc1ccc(NC(=O)Nc2nnc(SCC(=O)N(C(C)C)C(C)C)s2)cc1 | inactive: 89% |
| COc1cccc(CNC(=O)c2c(C)nn(-c3ccc(F)cc3)c2-n2cccc2)c1 | inactive: 101% |
| CCOC(=O)c1sc2ccccc2c1S(=O)(=O)Nc1ccc(OC)c(Cl)c1 | inactive: 89% |
| CCOc1ccc(NC(=O)Nc2nnc(N3CCCCC3C)s2)cc1 (stereo not drawn) | inactive: 64% |
| CCN(CC)c1ccc(C(=O)N2CCc3c([nH]c4ccccc34)C2c2ccc(F)cc2)cc1 (stereo not drawn) | inactive: 85% |
| O=C(CNc1ccccc1Cl)N/N=C1\CCCc2ccccc21 | inactive: 74% |
| N#Cc1cc2c(ccc3ccccc32)oc1=N | inactive: 105% |
| CCOC(=O)c1c(C)[nH]c(C)c1S(=O)(=O)NCC(=O)Nc1cccc(SC)c1 | inactive: 66% |
| CCC1CCc2nc3sc(C(=O)Nc4cccc(F)c4)c(N)c3cc2C1 (stereo not drawn) | inactive: 84% |
| CCN(CC)c1ccc(C(=O)NCc2nc3cccnc3n2Cc2ccc(C)cc2)cc1 | inactive: 85% |
| Cc1cccc(-c2nc3c4c(-c5ccccc5)c(-c5ccccc5)oc4ncn3n2)c1 | inactive: 129% |
| CC12CCC(C/C1=N\OC(=O)O)C2(C)C (stereo not drawn) | inactive: 87% |
| Cc1cccc(NC(=O)Cn2cc(S(=O)(=O)N3CCCC3)c(S(=O)(=O)N3CCCC3)c2)c1C | inactive: 90% |
| Oc1cccc(C(O)CNc2c3c(nc4cc(-c5cccc(F)c5)nn24)CCC3)c1 (stereo not drawn) | inactive: 102% |
| O=C(CN1CCC(C(=O)c2ccccc2)CC1)NCc1cccs1 | inactive: 89% |
| Cc1c(C)c2c(cc(C)c3c(-c4ccc(Br)cc4)coc32)oc1=O | inactive: 66% |

| Compound | survival |
| --- | --- |
| CCOC(=O)c1cccc(NC(=O)CCn2c(=O)oc3ccccc32)c1 | active: 39% |
| Cc1ccc(CSc2nnc([C@@H](N)C(C)C)o2)cc1 | inactive: 79% |
| CC(=O)c1ccc(NC(=O)Cn2c(=O)cc(C)c3c(C)nn(-c4cccc(F)c4)c32)cc1 | inactive: 81% |
| COc1ccc(C)cc1NC(=O)C(=O)NCCc1sc(-c2cccc(C)c2)nc1C | inactive: 89% |
| Cc1ccccc1C(=O)Nc1ccc(S(=O)(=O)N2CCC(c3nc4ccccc4s3)CC2)cc1 | active: 40% |
| O=C(O)CSc1nc2ccccc2c(=O)n1-c1ccccc1 | inactive: 78% |
| COc1ccc(NC(=O)c2c(NCc3cccc(F)c3)sc3c2CCC3)c(OC)c1 | inactive: 85% |
| CC1CC(C)CN(C(=O)Cn2cnc3c2c(=O)n(C)c(=O)n3C)C1 (stereo not drawn) | inactive: 107% |
| COc1cccc2sc(N(Cc3cccnc3)C(=O)c3ccco3)nc12 | inactive: 94% |
| Cc1nn(C)c(C)c1S(=O)(=O)N(CC(=O)NCCc1ccc(Cl)cc1)c1ccc(C(C)C)cc1 | inactive: 75% |
| Cc1cc(C)n(C(=O)c2ccccc2C(=O)O)n1 | inactive: 95% |
| CCCCOc1ccc(C2=NC(c3cccs3)=Nc3ccc(OC)cc3N2)cc1 | inactive: 88% |
| COc1ccc(OC)c(CNC(=O)c2c(C)oc3ncn(CC(C)C)c(=O)c23)c1 | inactive: 89% |
| COc1ccc(OC)c(CNS(=O)(=O)c2ccc3c(c2)oc(=O)n3C)c1 | inactive: 90% |
| COc1ccc(S(=O)(=O)N(CC(=O)N2CCc3ccccc3C2)c2ccc(C)cc2)cc1 | inactive: 52% |
| Cc1cccc2nc(Cn3c(=O)n(-c4ccc(Cl)cc4)c(=O)c4c5c(sc43)CCC5)cc(=O)n12 | inactive: 155% |
| CCOc1ccc(C(=O)Nc2cccc(C(=O)OCc3cc(=O)n4cc(C)sc4n3)c2)cc1 | inactive: 102% |
| COc1ccc(Br)cc1CNC(=O)c1cc(=O)[nH]c2ccc(S(=O)(=O)N3CCCCC3C)cc12 (stereo not drawn) | inactive: 82% |
